Data from article PMC12136788.
Some of the results follow.

T1: UNK ZnF1-3 (human, UniProt Q9C0B0 31-174)
T1 sequence: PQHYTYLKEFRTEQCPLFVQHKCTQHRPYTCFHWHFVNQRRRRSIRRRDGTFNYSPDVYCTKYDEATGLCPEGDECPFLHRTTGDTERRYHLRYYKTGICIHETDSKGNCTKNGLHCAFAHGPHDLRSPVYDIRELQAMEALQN

B1: chr4:43046810:43046811:-_ENSMUSG00000036002_ENSMUST00000107956|mus_mus|FALSE|FALSE (ssRNA)
RNA: GGGAGUUCUACAGUCCGACGAUCGAAGAGGCGAUGGCGCAGGAAGGUCAUGUGGGCAGCAGGCAUGUCCGAGAAGUCAAAGGUCACAAGGAACAUCUUCACCACAGUCUGGUUGGGGUUAAAUAAGGUCACUUGGAUGGUGCCCAACAGAGGAUUGAGCAUCA
B2: chr1:150192741:150192742:-_ENSG00000143401_ENST00000314136|hu_mus|motif|central (ssRNA)
RNA: GGGAGUUCUACAGUCCGACGAUCAAUUAUGGGCUAAAAAUGUCUAAUACAUUAAGCAUGAAUUAUAAAAAUCCAGAAUCGGAAUACAGUGCUAGAGAAUUUCACUAUGGGAAGAUGAAUGAGAAUUCUUUUCUAAGAACAUUACAACAGAGGAUUGAGCAUCA
B3: chr15:78834838:78834839:+_ENSG00000041357_ENST00000044462|hu_mus|motif|central (ssRNA)
RNA: GGGAGUUCUACAGUCCGACGAUCAUCAAGAAGCUUGUGGAUGUUGCGCCUCUCCGCUGCAAGCAAAACUCCAUCAUUGGCGGAAAUCCCCAAACAGGUGCCUGCAUGUCCAAUGGCUUCCAUGGCAUACUCCACUUGGUAUAACAACAGAGGAUUGAGCAUCA
B4: chr14:102550858:102550859:-_ENSG00000080824_ENST00000216281|hu_hu|FALSE|FALSE (ssRNA)
RNA: GGGAGUUCUACAGUCCGACGAUCGUUGUUCUUUUUCUUUCUGUUUUCAAACAGAUCAAAAGGAGCACGUCGUGGGACAAAUAGAAGGGCUCUGAAUUCCAACUGUCCUUCAACUGAAAAAUGCUUCACUGCCAAGUGAUCUUCCAACAGAGGAUUGAGCAUCA
B5: chr1:220276048:220276049:+_ENSG00000067704_ENST00000302637|hu_hu|hu_hu_hu_mus_True|68_68 (ssRNA)
RNA: GGGAGUUCUACAGUCCGACGAUCGCAAAUUGCCUGGUUGGCGGGAAUUGUCCAAGGCUGGGUGGUCCAGACCAAAACGCUAACAGGGGAUGAGGCAUCUGUAAGAGACUCCAACUUCGGAGGAGGUCUCAGGAGGGGGAAUCUCAACAGAGGAUUGAGCAUCA
B6: chr2:168013125:168013126:-_ENSMUSG00000051149_ENSMUST00000088001|mus_mus|motif|central (ssRNA)
RNA: GGGAGUUCUACAGUCCGACGAUCCUCCCAUGUAGUGUUUUUCAAAUAAAAGUCAUUAGGUUCAAACUGUUUAAAAUCUUCGGUAUGUUCUUUACAGUAUUCCAACCCAAUGUCACUAAGUAUUUUUUUCACAGUUUUCCGGGCCAACAGAGGAUUGAGCAUCA
B7: chr6:119166446:119166447:+_ENSMUSG00000041477_ENSMUST00000149651|mus_mus|motif|central (ssRNA)
RNA: GGGAGUUCUACAGUCCGACGAUCUGCCCAAGGCCUUUGUUUUAAAAAUCAUGAACAAUUUCUGAGGACCUACUCUGAGCGGUGUGAUGAAACAAGUAAAAAAGAUCAAGAUUUUUAAAUAAAUAAAAUAAAAAUAAAAAUAAACAACAGAGGAUUGAGCAUCA
B8: chr6:56729896:56729897:-_ENSMUSG00000059486_ENSMUST00000114323|mus_mus|FALSE|FALSE (ssRNA)
RNA: GGGAGUUCUACAGUCCGACGAUCCUUAUGCAAAUCAGCGGGUGGGCUGCAUAACUUGUAAACUUUUUCUGCCUGGGGGCUAUAACAGACAGAAGAGUAAAGACUACAAGGGUUUUCUGAGGAUGCUUCAAUGAAAAUCAUCAUCAACAGAGGAUUGAGCAUCA
B9: 44164716_44164836_307_3pUTR_ENSMUSG00000039753_ENSMUST00000047857|mouse|control|control (ssRNA)
RNA: GGGAGUUCUACAGUCCGACGAUCAGCAUCUCGGAGAGCUUAUUGUCAGAGUGUACAUUAUAUAUGGUCUGACUGCGCUGCUGAAGUAAACCGAUAAUGUAUUCAUUUUCAAUUUGUUCAUGCAUUUUAAACUCCUUGAAAGUACAACAGAGGAUUGAGCAUCA
B10: chr12:73312838:73312839:-_ENSMUSG00000021087_ENSMUST00000021497|mus_mus|FALSE|FALSE (ssRNA)
RNA: GGGAGUUCUACAGUCCGACGAUCUCAGUAUCAAGUACAUAAGUGCAAAUAUCCAGAGUCUGUGAUUGAGUCCAUUAGGAACUACAGAGGAAGUAAUACAAAUUGUAAUAAAGUCAACAUGCUGGCACCUUUAGUUACCAUACACAACAGAGGAUUGAGCAUCA
B11: 88154387_88168238_179_CDS_ENSMUSG00000005621_ENSMUST00000107353|mouse|control|control (ssRNA)
RNA: GGGAGUUCUACAGUCCGACGAUCGGGAUCUGGGAUGUCAAAGGCAGCCAGGAGAUCAUCAAAAUCUGGAGUUUUCAUAUCCCCCAUGGCUGGAUGCUGACAAGUACUUAGUGAGGUUCUCAAAACAAGGGUGUGGUGAGCGUUCAACAGAGGAUUGAGCAUCA
B12: chr2:192257801:192257802:+_ENSG00000128641_ENST00000304164|hu_hu|FALSE|FALSE (ssRNA)
RNA: GGGAGUUCUACAGUCCGACGAUCAUAUAUCUUCUGAAUGAGAGUGGCCAAGUCCUCCAGGCGUUGCUUCCUCAGGUCUUCUAAUUUGAAUAAUGUUCUUGGGUUUCGGAUGAAUAUCUUUGAUCUACCAAAGGAGUAUUCUUCCAACAGAGGAUUGAGCAUCA
B13: chr7:141450121:141450122:+_ENSG00000106028_ENST00000265304|hu_mus|hu_hu_hu_mus_True|68_98 (ssRNA)
RNA: GGGAGUUCUACAGUCCGACGAUCUCAUCCGUUCUAUUCCUUCUCUUUUGUCUGGUCACUCAGAAAUAUAAUAUUAUCAGCUAUGAUUGUUGUUGCUUGCCGCCUCACAUUGUUUUUAUCCAUGUACUCGCCAUAGUCCACUUUCAACAGAGGAUUGAGCAUCA
B14: 115891780_115891900_2025_3pUTR_ENSG00000165813_ENST00000369287|human|control|control (ssRNA)
RNA: GGGAGUUCUACAGUCCGACGAUCGGAUUCAGACUGAAGCUGUGCAUUCUUACUAGUGAGCCUUUCUGUAAACAGCAGCAGCUCAGAUUCUCUUUUCCUACUGCCUUCGAUGUCUUUUUGUAGGUCAUUAAUCAAAGAAUUAAGCAACAGAGGAUUGAGCAUCA
B15: chr2:169020305:169020306:-_ENSG00000198648_ENST00000355999|hu_hu|motif|central (ssRNA)
RNA: GGGAGUUCUACAGUCCGACGAUCCUGACCGUUUCUGUGUAGAUAGUCUAAGCCUUCCAAAACCUCUUUAAGAAUUGUUGCGGUUAUUGCCUCUUCCAGAACUCCAUUCUUGUGUUCUCCUCGGUUGACAAUGUAUUUUAUGAUCAACAGAGGAUUGAGCAUCA
B16: chr8:80553714:80553715:+_ENSG00000104435_ENST00000220876|hu_hu|motif|central (ssRNA)
RNA: GGGAGUUCUACAGUCCGACGAUCAGCCUCCAGUUUCUUCUGGAUCUCCUCCAGGGACAGGUCUUUCUUCUUUGGAGAAGCGGAAGUUCGUGGGGCUUCUGAGAUAGGAGAUGGUGGCUUCAAGAUCAGCUCAAAAGCCUGGCCCAACAGAGGAUUGAGCAUCA
B17: chr9:95013113:95013114:-_ENSG00000196305_ENST00000443024|hu_hu|hu_hu_hu_mus_False|18_48 (ssRNA)
RNA: GGGAGUUCUACAGUCCGACGAUCCUCAGUCAGAAAGGGCGUGUAAGGGGCCAUCAGUCUGCACAGAGAAAGCAGGACACUGAACAGGGUUUCUAGGGCCAUGACACAGUCUUCCACCCCAUUUUCACCCUUUAACCUCCUCCUCAACAGAGGAUUGAGCAUCA
B18: chr4:144460044:144460045:+_ENSG00000153147_ENST00000283131|hu_mus|hu_hu_hu_mus_False|1_88 (ssRNA)
RNA: GGGAGUUCUACAGUCCGACGAUCACGGUCCAUAGCCUGAAGAUCAACUUGGGGAUUCCAAUCUGAGUCAUAUAAAAUGACUACAUCAGCAGUUGCAAGAUUGAUGCCCAGACCACCAGCACGUGUGCUUAGCAUAAAAACAAACAACAGAGGAUUGAGCAUCA
B19: chrX:71549400:71549401:+_ENSMUSG00000019087_ENSMUST00000019231|mus_hu|mus_mus_mus_hu_False|18_108 (ssRNA)
RNA: GGGAGUUCUACAGUCCGACGAUCGCAAGGAAGAGGAGGAAGCUCUUCAGUCCAGUGCGCUGCAGGGUGGGAAAGCAACAACACGGACACCGUCCCACCCUCAACCCCCCCACUGGCAUGUCACACAACAAUCUGGGUCAAAGACAACAGAGGAUUGAGCAUCA
B20: chr7:44244176:44244177:+_ENSG00000106636_ENST00000223369|hu_mus|hu_hu_hu_mus_False|98_108 (ssRNA)
RNA: GGGAGUUCUACAGUCCGACGAUCACUAUCAUUCCGGACGUAGACGUGGCAAAGAUACUCUUGUUCUUUGACAGAAGCUCUGCUGCCUUUCCCCGAGCGUUCCACAAUCAGUUGACUUGUAAAGGUCAUGAAUUCCUGCACACUCAACAGAGGAUUGAGCAUCA
B21: chr5:128448638:128448639:+_ENSG00000066583_ENST00000173527|hu_mus|hu_hu_hu_mus_False|58_58 (ssRNA)
RNA: GGGAGUUCUACAGUCCGACGAUCGGCACUCGCCUUAAUUAGGUUCUGAAUUUCCUUGAACUUCGGGUGGUCUUUGUCAGCUACCAGCUGUAGGAGGACAGCCUCACUAGUGGUCACGAUGAUCCCAGUGCGGGCAAGACGCUCCAACAGAGGAUUGAGCAUCA
B22: chr1:66463027:66463028:+_ENSMUSG00000015222_ENSMUST00000114013|mus_mus|mus_mus_mus_hu_True|18_18 (ssRNA)
RNA: GGGAGUUCUACAGUCCGACGAUCUUUUCUUUCAGGAGUGGAAAUUCUGCCUCUCCCGGUUUUAAAAGGCUUUUCUUUUCUAUGUUUCUCAAGAGAUGAUCUCCGAGCUUCCUUUUCAGCUCUCUCCUCUUUAGGAAUAGUUUCCAACAGAGGAUUGAGCAUCA

Target: T1, UNK ZnF1-3
Test: nsRBNS (natural sequence RNA bind-n-seq); RBNS binding buffer (assumed for nsRBNS): 25 mM Tris pH 7.5, 150 mM KCl, 3 mM MgCl2, 0.01% Triton X-100, 500 ug/ml BSA, 20 U/ml SUPERase-In, 4 C; UNK is unkempt and MSI1 is Musashi-1; names of the RNAs are library labels; protein concentration not given here; high values mean tight binding

B1 was tested. Which binding signal did it give?
The binding signal was 1.56 enrichment R.

Which binding signal does the source give for B2 here?
Its binding signal is 1.22 enrichment R.

With B3 as the binder, how does the binding signal read?
Its binding signal is 0.813 enrichment R.

For B4, which binding signal is on record?
The binding signal was 0.582 enrichment R.

With B5 as the binder, how does the binding signal read?
Its binding signal is 1.49 enrichment R.

For B6, which binding signal is on record?
The binding signal was 0.705 enrichment R.

With B7 as the binder, how does the binding signal read?
The binding signal was 0.268 enrichment R.

With B8 as the binder, how does the binding signal read?
The binding signal was 1.49 enrichment R.

B9 was tested. Which binding signal did it give?
Its binding signal is 0.973 enrichment R.

How did the binding signal turn out when B10 was run?
The binding signal was 1.71 enrichment R.

B11 was tested. Which binding signal did it give?
The binding signal was 1.08 enrichment R.

How did the binding signal turn out when B12 was run?
Its binding signal is 1.02 enrichment R.

How did the binding signal turn out when B13 was run?
Its binding signal is 0.436 enrichment R.

For B14, which binding signal is on record?
The binding signal was 0.802 enrichment R.

B15 was tested. Which binding signal did it give?
Its binding signal is 0.439 enrichment R.

B16 was tested. Which binding signal did it give?
The binding signal was 0.853 enrichment R.

B17 was tested. Which binding signal did it give?
Its binding signal is 0.617 enrichment R.

With B18 as the binder, how does the binding signal read?
Its binding signal is 1.32 enrichment R.

B19 was tested. Which binding signal did it give?
The binding signal was 1.5 enrichment R.

B20 was tested. Which binding signal did it give?
The binding signal was 0.798 enrichment R.

For B21, which binding signal is on record?
The binding signal was 0.845 enrichment R.

With B22 as the binder, how does the binding signal read?
Its binding signal is 0.349 enrichment R.
